# From the supplement of paper PMC11417369
# ± gives the standard deviation of the averaged measurements. The list shows a part of the results.
# Tested on: PfAP2-I AP2 domain 3 (GST-tagged)
# Test: gcPBM binding intensity (ln(normalized median fluorescence intensity)); higher = stronger DNA binding
# Method in brief: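 Binding intensity values are the highest Masliner-normalised natural-log median intensity among replicate spots of either probe orientation. The binding step lasted 1 h in 1× PBS with 1% milk, 0.2 mg/ml BSA, 0.5% salmon testes DNA and 0.03% Triton X-100, using GST-tagged P. falciparum DNA-binding domains expressed in E. coli on an Agilent 4 × 180k array of primer-extended double-stranded 36-bp intergenic genomic probes plus negative controls. Alexa488 anti-GST antibody and a 488 nm scan detected bound protein.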
row,Sequence,gcPBM binding intensity (ln)
1,ATATTTTACAAATGCACACATAATTTTTTTTTTTTT [CACACA_site2763],9.33 ± 0.099
2,GAACCTTTAAAATACACACCCAAATCCTTTGAAATA [CACACA_site3630],7.78 ± 0.61
3,TACATAAATACATACATACACACATATATATATATA [CACACA_site2105],9.21 ± 0.69
4,TTTTTTTTTATATATACACACAATAAATAAATATAA [CACACA_site2954],7.9 ± 0.33
5,AAATTAAACAATAAATGTACATATATATTTGTATAT [XGTACX_site1092],7.68 ± 0.38
6,ATAAAAAATAAATAAGGTACAGAACATTTATACATT [XGTACX_site1783],7.88 ± 0.55
7,AACAAGGTATTAGGGTGTACTATATATATTTATATT [XGTACX_site7776],8.26 ± 0.3
8,TAAAGGAGCCTATGAACACACACATGTACTTATATT [CACACA_site9351],7.67 ± 0.59
9,AATTGTTTGTTTGGGTGTACATGGTTCTATATAAAT [XGTACX_site7940],8.52 ± 0.2
10,AATAAAATATAAACATTATATATATATATATATATA [GTGCAC_negctrl_site58],9.24 ± 0.69
11,ATTTTTTCTTTTTTTTTTCCGTTTTTTTGGACATTT [CACACA_negctrl_site1174],7.58 ± 0.68
12,ATTAAAATGGTATGTGCGCACATAATATATATATGT [GTGCAC_site9572],9.16 ± 0.49
13,ACATTGACATGTCGAAGTACTCAAGAAGCATACAAT [XGTACX_site3948],7.72 ± 0.65
14,ATATAAATGATATGTACACACATTTATATTTATAAA [CACACA_site7600],7.75 ± 0.26
15,ACTCTATACATCTAATGTACATGGAAAAAAAAATTC [XGTACX_site733],8.07 ± 0.42
16,TGGAAAATTATTAACACACACATATAAATATATATA [CACACA_site46],8 ± 0.69
17,TTCTTACATAAAATATCACACACATAAAAAAACAAT [CACACA_site8576],8.06 ± 0.35
18,GTAATAAGAATTATAGTGCAATGTAATACATTTATA,9.255 ± 0.007
19,AATACAACATAATGAAGTACTGTATTTTATATTACT [XGTACX_site4885],7.52 ± 0.42
20,TAATTTGAACGGTACAGTACTCTTTTTCTTTTTCAT [XGTACX_site5534],7.48 ± 0.55
21,ATATATTTTTTCAATTGTACGTTTTAATAATATTTA [XGTACX_site2130],7.94 ± 0.52
22,ATGAAATCTTTAGAATATAGATGATGTTATTTAATT [XGTACX_negctrl_site511],7.33 ± 0.54

row,Sequence,gcPBM binding intensity (ln)
1,TTTCTTTGAATAAATACACACGAGAAATGAAAGTAG [CACACA_site8490],8.38 ± 0.6
2,GCAAAATTTCCTAAGGTGCTTTTATTTTACACCGTT [GTGCAC_site9923],10 ± 0.42
3,AATGGGTTAGCACATACACACCAATATATTATAGAT [CACACA_site7444],7.89 ± 0.59
4,CTTTTATTGCTCTATATGCACACCTTAATTCTTCAT [CACACA_site2195],9.74 ± 0.19
5,TTTATTACCATATTTTGTACACACATCTTTATCTCA [XGTACX_site6842],8.26 ± 0.74
6,TTAAATAGCTGTAATTGTACAAATAAATACATAAAT [XGTACX_site3097],7.82 ± 0.54
7,TATAGTAATATTTGAAGTACAAAATTAAAATAAATA [XGTACX_site7634],7.71 ± 0.54
8,TTATATAAGGTCTATATATAAATATTAATGATAAGG [TGCATGCA_negctrl_site354],7.75 ± 0.46
9,TTAATATTTTGATGTGTACACATTAAAATAGTTTTA [CACACA_site5712],7.7 ± 0.47
10,TAAATATATATATGGTGTACCATTTTGGGTTAATAT [XGTACX_site2706],7.91 ± 0.47
11,GGGAGGATATTTCACAGTACCCAGGAAATCTGCGGA [XGTACX_site2555],8.09 ± 0.5
12,TATATTATTTTTTATTGTACTTAAAAATATTATTTG [XGTACX_site1443],7.7 ± 0.15
13,AGAAGTTTATCTTTTAGTACGCATAAAAAAAAAAAA [XGTACX_site2359],8.03 ± 0.49
14,TATAAATAATTATATTGTACTCTTTATATTTTTCTT [XGTACX_site5335],7.74 ± 0.49
15,AAGGAAATAATTAAATGTACAAAAAAAAAAAAAATT [XGTACX_site562],7.62 ± 0.46
16,TACAAACAAACACATAGCAATATATGTTATCAAAAA [XGTACX_negctrl_site1],7.41 ± 0.69
17,TTTTATGCTCAATTATTAAGAAATACTTTTTCTTCC [XGTACX_negctrl_site208],7.7 ± 0.71
18,ATATTTTTTTTTCTTTCGCACACGTGAAAGAATTTC [CACACA_site8636],8.46 ± 0.51
19,AAAATAAAAATTAACTGTACATACATTATTCAAATT [XGTACX_site6106],7.59 ± 0.6
20,TCCTTATTTTGCAGGAGTACCATTTTTTAAAAATAC [XGTACX_site5968],8.61 ± 0.74
21,ACAATTACTTATTTTAATTTTTTTAATCTATTGATT [CACACA_negctrl_site967],7.45 ± 0.64
22,AATAACAATTATAAAAGTACAGATTTTTATTTCTAA [XGTACX_site5746],7.38 ± 0.45

row,Sequence,gcPBM binding intensity (ln)
1,TTTTTTTTGTTATGAACATGCAAATTAAAATATAAT [TGCATGCA_site954],7.83 ± 0.59
2,TAAATACATAAAAATTGTACACATTGTTTTCTCTTT [XGTACX_site6435],7.74 ± 0.29
3,TACTTTTCTTAAAGATGTACGTTTTAAAAATAAAAT [XGTACX_site14],7.81 ± 0.2
4,CAACAATTTCGTCATACACACATTCAGAATATATAT [CACACA_site2370],7.75 ± 0.52
5,TGAACTCATAGGAAAACACACATATGTGCAATATAT [CACACA_site6231],10.8 ± 0.54
6,ACAATGATAGTGTAAAGTACATATATATAAAAAAAT [XGTACX_site5928],8.11 ± 0.69
7,TGTTATTATTAAGACACACACACAAAAAAAAAAAAA [CACACA_site1481],8.12 ± 0.56
8,TTTATAATATGTTATACATGCAGGTACCTTTTTGTA [TGCATGCA_site746],7.76 ± 0.71
9,ATTTATAATTTTTGAGCACACACAAGCATATATATA [CACACA_site8531],8.33 ± 0.52
10,TTGTTCATCTTTTTTTTTTTTTTTTTTTTTTAAATC [CACACA_negctrl_site191],7.42 ± 0.53
11,TTTCAATGTGACACGTGTCCGTAAAATTACATAATT [XGTACX_site7073],7.92 ± 0.57
12,ATTAATAAAAGATAAAGTACAAATCGGAAAATGAAT [XGTACX_site7846],7.87 ± 0.73
13,AAGATTAAACATTGCACACAGAAATATATTTTCTAT [CACACA_site2374],8.64 ± 0.3
14,AATAATATATAAGAAAGTACAAAAAAATAAAATAAA [XGTACX_site3302],7.77 ± 0.67
15,AAAAAGAAAAAACTTACACACATATATACACCCATG [CACACA_site8079],7.9 ± 0.38
16,ATATCAAATAGACAAACACACAAAGGAAGAGTGAAA [CACACA_site3921],7.7 ± 0.83
17,TTCTTTTTTTTTTTTTTTTTTTTATAGTACAAAAAA [TGCATGCA_negctrl_site450],7.95 ± 0.18
18,ATCTATATTATTTCTACACACATATCTATAATATGT [CACACA_site7561],7.85 ± 0.72
19,TTTTTTTTTTTGTGTGCATGTGCTAGGAAAGGTAGG [TGCATGCA_site330],8.85 ± 0.11
20,TTTCTATTACGAACGTGTACATACATTATTCTTAAA [XGTACX_site5816],8.35 ± 0.24
21,TAGAAAAAAATAGATGCATGCAATGAATGAATAATA [TGCATGCA_site14],8.29 ± 0.9
22,ATATATTTTGGGGACTTTTTAAAAAAGAAGTATTAA [TGCATGCA_negctrl_site337],7.91 ± 0.51

row,Sequence,gcPBM binding intensity (ln)
1,TTTTTGTTAATAAGTATGCACTATCTCATTTTTGTA,9.29 ± 0.2
2,CTATACTATGAAAAGTGTACGAATAGCTAGCTATTT [XGTACX_site5927],7.57 ± 0.73
3,TAGTAGTATTCATCCAGTACATATAAATGTATAATA [XGTACX_site7552],7.64 ± 0.38
4,GAGCATTACACATATACACACATATAAATAAACATA [CACACA_site7315],8.15 ± 0.34
5,GAGAAATTTATACATACACACATATAAATATTATAG [CACACA_site7819],7.64 ± 0.46
6,CTTTGCATTACGAACATACACACAGAATAACTGAAA [CACACA_site3024],8.43 ± 0.33
7,ATATATTTTTTTTATACATGCAATGCATTTACGTTG [TGCATGCA_site565],7.98 ± 0.99
8,TTTTTTTTTTTTTGAACACACATTATTAATTTTTAT [CACACA_site308],8.13 ± 0.73
9,TTTTTTATATATTAGGAATTTATAAAATTAGAAGGT [GTGCAC_negctrl_site617],8.15 ± 0.21
10,AACCAGTTGATGTGTACACATATAGTAATAATTTTA [CACACA_site5564],8.04 ± 0.43
11,GTATTAATTTTAAGGTGTACGCAAAAAATTTAATTT [XGTACX_site718],8.03 ± 0.29
12,ACGATTCAAAGGGAATATAAAATATTATTATCTATA [CACACA_negctrl_site1739],7.28 ± 0.47
13,AACCAATATGCGTATACACACATAAATATAAATATA [CACACA_site3780],7.79 ± 0.38
14,AATAGAATAATCCTTACACACACACCCACACGAATA [CACACA_site8053],8.275 ± 0.007
15,TATATTAACAAAATGGTGCAATAATTTCTATATTGT [GTGCAC_site9430],11.2 ± 0.54
16,TGTGTAAGCACATACAAACACACAACCTTATTTTTA [CACACA_site2187],8.4 ± 0.071
17,TTATTATATTAAAAGAGGACACATTTATTTTTTTTT [XGTACX_site1241],7.46 ± 0.39
18,AAAAAAAAAAAAAAAAAAAAAAAAAAAAATAAAAAA [CACACA_negctrl_site59],9.86
19,AAAATATTTAATAGAAGTACACATGTATATATACAT [XGTACX_site8942],7.76 ± 0.47
20,AGATCATAATATTATACACACATTATATATCTGTAA [CACACA_site4925],7.8 ± 0.59
21,TTTTGAATATATTAAATAAATTAAAAATCTACAAAC [GTGCAC_negctrl_site622],7.6 ± 0.59
22,TAATAAATTCAAAACATAAAAAGGAAAAAAAAAAAA [CACACA_negctrl_site1330],8.09 ± 1
